# Reference: PubChem BioAssay AID504332 (National Center for Advancing Translational Sciences (NCATS), 2011)
# Hit rate of the full screen: of about 350,000 compounds, about 31,000 (8.9%) were called active. The shares of active, inactive and inconclusive entries below differ from those in the screen. Calls follow the shape of the dose curve; as a rule, active = well fitted inhibition curve with a large enough effect; inconclusive = small, poorly fitted or top-dose-only effect; inactive = no such curve, though single readings can be large or run the other way. A potency beside an inconclusive call is a rough fit, not a confirmed value.
# Molecular target: Histone-lysine N-methyltransferase EHMT2 (Homo sapiens) (UniProt Q96KQ7)
# Assay: qHTS Assay for Inhibitors of Histone Lysine Methyltransferase G9a; also: nearly all actives have a fitted effect of over 75% in size
# Settings: G9a H3K9 monomethylation, AlphaScreen, 2 h; activity, negative = inhibition: at 59 µM (top of the series) unless noted
# Method in brief: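 Using a bead-based AlphaScreen, monomethylated H3K9 product from 2 h room-temperature reactions (G9a 20 nM, peptide 500 nM, SAM 20 uM) was detected with 0.5 ug/mL rabbit anti-H3K9me1 antibody.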
# % is scaled to controls: 0 for no effect and ±100 for the full control effect; potency is read from the fitted curve at half-maximal effect; tags tell the direction and shape of the fitted curve.
# Sequence of UniProt Q96KQ7 (Q96KQ7 whole entry, looked up): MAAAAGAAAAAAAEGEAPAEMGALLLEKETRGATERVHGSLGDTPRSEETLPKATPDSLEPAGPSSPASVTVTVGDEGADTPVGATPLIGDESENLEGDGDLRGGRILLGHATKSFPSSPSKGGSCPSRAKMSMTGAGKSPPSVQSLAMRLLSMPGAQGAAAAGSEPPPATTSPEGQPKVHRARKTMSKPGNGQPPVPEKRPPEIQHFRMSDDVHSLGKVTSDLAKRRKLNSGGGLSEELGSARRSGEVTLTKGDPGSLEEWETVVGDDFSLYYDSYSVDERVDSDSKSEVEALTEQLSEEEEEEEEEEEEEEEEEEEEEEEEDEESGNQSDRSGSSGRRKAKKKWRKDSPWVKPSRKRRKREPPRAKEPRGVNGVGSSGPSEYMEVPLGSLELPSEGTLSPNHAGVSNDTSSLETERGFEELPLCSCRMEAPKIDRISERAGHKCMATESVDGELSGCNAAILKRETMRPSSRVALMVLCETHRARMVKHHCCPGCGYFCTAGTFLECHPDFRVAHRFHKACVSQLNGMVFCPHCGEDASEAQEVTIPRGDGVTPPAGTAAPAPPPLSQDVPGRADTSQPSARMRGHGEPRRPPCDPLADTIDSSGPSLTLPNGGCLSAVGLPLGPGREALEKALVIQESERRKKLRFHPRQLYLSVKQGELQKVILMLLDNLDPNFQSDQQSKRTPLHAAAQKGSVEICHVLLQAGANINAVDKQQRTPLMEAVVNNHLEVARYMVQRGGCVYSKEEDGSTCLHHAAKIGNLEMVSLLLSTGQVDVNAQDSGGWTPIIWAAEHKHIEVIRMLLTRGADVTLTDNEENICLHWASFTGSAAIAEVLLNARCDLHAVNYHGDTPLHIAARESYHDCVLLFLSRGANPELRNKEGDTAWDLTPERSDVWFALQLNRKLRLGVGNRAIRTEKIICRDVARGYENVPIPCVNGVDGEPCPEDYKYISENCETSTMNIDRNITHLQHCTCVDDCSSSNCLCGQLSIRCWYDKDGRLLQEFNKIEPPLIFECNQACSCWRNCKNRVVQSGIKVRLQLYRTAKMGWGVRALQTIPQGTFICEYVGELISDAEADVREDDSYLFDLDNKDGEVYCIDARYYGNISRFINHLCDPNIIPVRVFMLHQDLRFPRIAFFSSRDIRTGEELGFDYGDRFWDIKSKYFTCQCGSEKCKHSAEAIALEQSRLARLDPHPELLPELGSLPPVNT
SMILES,Potency,"activity, negative = inhibition"
CC1=C(C(=O)Nc2ccccc2)C(c2ccccn2)n2nc(CCCO)nc2N1 (centres undefined),"inconclusive: 50.1 µM [inhibitor, partial curve, poor fit]",–
O=C1NC(c2ccccc2)=N/C1=C/c1ccco1,active: 22.4 µM,–
CN(C)C(=O)c1cc(C(=O)c2ccccc2C(F)(F)F)c[nH]1,inactive,–
Cn1cccc1/C=C1\CC(C(C)(C)C)C/C(=C\c2cccn2C)C1=O (centres undefined),"inconclusive: 3.98 µM [inhibitor, single point]",–
Cc1cccc(N2CCN(C(=O)CCc3c(C)nc4c(c3C)c(=O)n(C)c(=O)n4C)CC2)c1C,inactive,–
CCOc1ccc(OCC(=O)OCc2csc(CC(=O)Nc3ccccc3C)n2)cc1,"inconclusive: 70.8 µM [inhibitor, partial curve, poor fit]",–
O=C(NC1(C(F)(F)F)C(=O)Nc2c1c(=O)[nH]c(=O)n2-c1ccc(F)cc1)c1ccccc1 (centres undefined),inactive,–
COc1ccc(C2C(=O)N(C3CCCCC3)CC(=O)N2CCC2=CCCCC2)cc1 (centres undefined),"inconclusive: 39.8 µM [inhibitor, single point]",–
Cc1ccc(C(=O)N2CCN(C(=O)c3ccccc3)C2c2ccc(N(C)C)cc2)cc1 (centres undefined),"inconclusive: 31.6 µM [inhibitor, single point]",–
Cc1cccc2sc(N(CCN3CCOCC3)C(=O)CCS(=O)(=O)c3ccccc3)nc12,active: 50.1 µM,–
CCCCn1c(N)c(N(CCC(C)C)C(=O)C(C)N2C(=O)c3ccccc3C2=O)c(=O)[nH]c1=O (centres undefined),active: 12.6 µM,–
CCN(CC)CCNc1nc(-c2cccs2)c(CC(=O)O)s1,active: 8.91 µM,–
CC(C)[N+](C)(C)CC(O)CN(c1ccccc1)c1ccccc1 (centres undefined),inactive,–
O=C(CCN=C1NS(=O)(=O)c2ccccc21)OCC(=O)c1ccccc1,"inconclusive: 44.7 µM [inhibitor, partial curve, poor fit]",–
COc1ccc(-n2cc(C(=O)OCc3ccc(F)c(F)c3)c3ccccc3c2=O)cc1,inactive,–
Clc1ccc(-c2cn3ncsc3n2)cc1,"inconclusive: 14.1 µM [inhibitor, partial curve, poor fit]",–
COc1ccc(CC(=O)N/N=C(\C)CC(=O)NCc2ccco2)cc1OC,"inconclusive: 79.4 µM [inhibitor, single point]",–
Cc1ccccc1Nc1nc(N)nc(CSc2nc3ccccc3c(=O)n2CCCO)n1,"inconclusive: 28.2 µM [inhibitor, single point]",–
Fc1ccc(-n2[nH]nnc2=S)cc1N1CCCC1,"inconclusive: 2.51 µM [inhibitor, partial curve, poor fit]",–
NNc1nc2sc3c(c2c(=O)[nH]1)CCc1ccccc1-3,"inconclusive: 20 µM [inhibitor, partial curve]",–
COc1ccc(N(CC(=O)N2CCN(C)CC2)S(=O)(=O)c2cc(C)ccc2OC)cc1Cl,inactive,–
COc1ccc(CNC(=O)C/C(C)=N/NC(=O)COc2ccc(C)cc2Br)cc1,"inconclusive: 89.1 µM [inhibitor, single point]",–

SMILES,Potency,"activity, negative = inhibition"
Cc1cccc(OCCc2nnc(N)s2)c1C,"inconclusive: 50.1 µM [inhibitor, partial curve, poor fit]",–
Cc1occc1C(=O)NNC(=S)NC(=O)COc1ccc(Cl)cc1Cl,active: 8.91 µM,–
COc1ccc2nc(SCC(=O)Nc3ccc(S(=O)(=O)Nc4nccc(C)n4)cc3)[nH]c2c1,"inconclusive: 20 µM [inhibitor, single point]",–
Cc1nn(Cc2ccc(C(=O)NC(C)(C)C)o2)c(C)c1Br,"inconclusive: 8.91 µM [inhibitor, partial curve, poor fit]",–
CC(C)C(=O)Nc1cccc(-c2nc3ncccc3o2)c1,"inconclusive: 89.1 µM [inhibitor, single point]",–
Cc1ccc(C(=O)NCCc2cccc(Cl)c2)cc1[N+](=O)[O-],inactive,–
CCCCN1C(=O)c2[nH]nc(-c3ccccc3O)c2C1c1cc(Br)c(O)c(OC)c1 (centres undefined),"inconclusive: 10 µM [inhibitor, partial curve]",–
CCC(=O)OC1C2CC3=C4CC(=O)OC(c5ccoc5)[C@]4(C)CCC3[C@@](C)(C2=O)C(CC(=O)OC)C1(C)C (some centres undefined),–,inactive: -23.6% [at 2.33 µM]
O=C1c2ccccc2C(=O)N1CCc1csc(NNc2nc(CCN3C(=O)c4ccccc4C3=O)cs2)n1,"inconclusive: 39.8 µM [inhibitor, single point]",–
O=C(CSc1ncnc2nc[nH]c12)Nc1nnc(SCc2ccc(Cl)c(Cl)c2)s1,"inconclusive: 79.4 µM [inhibitor, single point]",–
O=c1c2cccnc2n(Cc2ccccc2F)c(=O)n1Cc1ccc(F)cc1,inactive,–
O=C(c1ccc2nc(N3CCCCC3)sc2c1)N1CCN(c2ccccn2)CC1,active: 56.2 µM,–
CCOCCCNCc1c(Cl)cccc1Cl,"inconclusive: 20 µM [inhibitor, single point]",–
CCN(CC)P(=O)(C(NC(=O)OC)C(F)(F)C(F)(F)C(F)(F)C(F)F)N(CC)CC (centres undefined),"inconclusive: 22.4 µM [inhibitor, single point]",–
COc1cccc(CNC(=O)c2ccc3nc(N4CCCCC4)sc3c2)c1OC,inactive,–
O=C(Nc1ncccc1O)c1ccc2c(c1)OCO2,"inconclusive: 89.1 µM [inhibitor, single point]",–
COc1ccc(-n2cccc2/C=C2/NC(=O)N(c3cccc(Cl)c3)C2=O)cc1,"inconclusive: 39.8 µM [inhibitor, single point]",–
Cc1cccc(CN(C)CCc2ccccn2)c1,"inconclusive: 3.16 µM [inhibitor, single point]",–
Cc1ccnc(NC(=O)CN2C(=O)c3ccccc3S2(=O)=O)c1,"inconclusive: 89.1 µM [inhibitor, single point]",–
Cc1ccc(OCc2ccc(C(=O)NCC3CCCO3)cc2)cc1 (centres undefined),inactive,–
Cc1nc2sc(C(c3ccco3)N3CC(C)OC(C)C3)c(O)n2n1 (centres undefined),active: 25.1 µM,–
CSCCC(NC(=O)c1ccccc1Cl)C(=O)NC1CCN(Cc2ccccc2)CC1 (centres undefined),active: 1.58 µM,–
